# Among all 110,000 compounds or so, about 230 (0.21%) showed an effect of 50% or more. Some of the results follow.
# Molecular target: DPAP1 (Plasmodium falciparum, UniProt Q8IIJ9)
# Experiment: primary screen, percent inhibition; read by cleavage of a fluorogenic dipeptide substrate; higher = more effect of the substance
# Parameters: species or system P. falciparum D10 trophozoite lysates; single well
# 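Further: 30 min substrate incubation versus DMSO and 10 µM JCP410 controls.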
# Sequence of DPAP1 (Q8IIJ9 whole entry, looked up): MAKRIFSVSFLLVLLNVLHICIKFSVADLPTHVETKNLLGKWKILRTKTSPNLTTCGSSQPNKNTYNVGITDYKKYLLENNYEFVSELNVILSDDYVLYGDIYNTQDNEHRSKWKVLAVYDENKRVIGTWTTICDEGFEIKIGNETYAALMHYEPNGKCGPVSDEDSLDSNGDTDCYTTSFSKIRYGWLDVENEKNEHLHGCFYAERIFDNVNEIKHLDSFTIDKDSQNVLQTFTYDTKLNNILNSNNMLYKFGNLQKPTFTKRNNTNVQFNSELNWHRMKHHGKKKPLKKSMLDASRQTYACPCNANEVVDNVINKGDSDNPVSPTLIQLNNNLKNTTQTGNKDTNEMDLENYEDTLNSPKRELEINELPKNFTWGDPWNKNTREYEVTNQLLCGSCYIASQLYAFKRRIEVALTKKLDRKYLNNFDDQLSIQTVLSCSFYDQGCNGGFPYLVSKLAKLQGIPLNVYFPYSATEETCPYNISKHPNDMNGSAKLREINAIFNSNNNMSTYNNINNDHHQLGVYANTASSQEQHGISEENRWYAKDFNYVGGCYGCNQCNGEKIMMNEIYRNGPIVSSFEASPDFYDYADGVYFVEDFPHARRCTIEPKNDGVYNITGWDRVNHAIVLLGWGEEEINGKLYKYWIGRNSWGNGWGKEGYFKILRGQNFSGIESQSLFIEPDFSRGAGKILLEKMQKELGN
row,Compound,% Inhibition @ 10 uM
1,CC(C)NC(=O)CCc1nnc2n(CCc3ccccc3)c(=O)c3ccccc3n12,-0.905%
2,CC1CC(C)CN(c2ncnc3c2nc2n3CCCCC2)C1 (centres unmarked),2.01%
3,CC1CCOC(c2coc3ccccc3c2=O)O1 (centres unmarked),-0.312%
4,CCCNC(=O)c1cc(Cl)cc(Cl)c1NC(=O)c1ccco1,-0.62%
5,CC(C)(C)c1ccc(C(=O)N2N=C(C(F)F)CC2(O)C(F)F)cc1 (centres unmarked),-5.07%
6,COCCNC(=O)CCCC(=O)n1ncc2cc(C)ccc21,5.39%
7,COc1ccccc1C1NCCc2[nH]cnc21 (centres unmarked),0.774%
8,CC(C)(C)NS(=O)(=O)c1cn(CC(=O)NC2CCCCC2)cc1S(=O)(=O)NC(C)(C)C,1.84%
9,Oc1nccc2c1ncn2C1CCCCC1,-1.2%
10,CCOC(=O)c1ccc(NC(=O)c2cc3c(C)nn(-c4ccccc4)c3s2)cc1,-1.75%
11,O=C1c2ccccc2NC(c2ccccc2)N1c1ccc(F)cc1 (centres unmarked),1.34%
12,CN(C(=O)C1CCN(S(=O)(=O)c2cccc3nonc23)CC1)C1CCCCC1,2.8%
13,CCN(Cc1ccccc1)C(=O)Cn1cc2c(n1)-c1c(oc(C(=O)N3CCCC3)c1C)CC2,-0.804%
14,CC1(C)C=C(c2ccc(/C=C3\CCC/C(=C\c4ccc(C5=CCC(C)(C)NC5(C)C)s4)C3=O)s2)CC(C)(C)N1,11.7%
15,CCOC(=O)c1c(NC(=O)CNCCCN2CCOCC2)sc2c1CCCCC2,7.75%
16,Cc1ccc(C(=O)COC(=O)c2cc3ccccc3oc2=O)cc1C,4.95%
17,COC(=O)/C(C#N)=C/c1c(Oc2ccccc2Cl)nc2ccccn2c1=O,4.06%
18,COc1ccc([C@H]2Oc3ccccc3C[C@H]2O)cc1,-13.5%
19,Cc1cc(C)nc(SCC(=O)Nc2nc(-c3ccccc3)cs2)n1,2.03%
20,CCOc1ccc(C2C(C(=O)OC)=CN(C(C)C)C=C2C(=O)OC)cc1OC,-5.05%
21,CCOC(=O)N1CCc2c(sc3c2C(=O)NC(/C=C\c2ccccc2)N3)C1 (centres unmarked),5.65%
22,CN(C)c1ccc(C(=O)Nc2ccc(C#N)cc2)cc1,-5.11%
23,Cc1cc(N2CCOCC2)nc2ccc(O)cc12,-0.13%
24,Cc1ccc(CCNC(=O)C2CCN(S(=O)(=O)N(CC(C)C)CC(C)C)CC2)cc1,-4.83%
25,Cc1ccc(NC(=O)C2CCCCC2)cc1O,3.29%

row,Compound,% Inhibition @ 10 uM
1,CCOC(=O)c1nnn(-c2nonc2N)c1-c1ccc(F)cc1,-1.82%
2,CC(C)N1C(=O)/C(=C/Nc2ccc(Cl)cc2Cl)C(=O)N(Cc2ccco2)C1=O,0.751%
3,COc1cccc(C(=O)C2=C(O)C(=O)N(CCc3ccccc3)C2c2ccc(O)cc2)c1 (centres unmarked),-2.46%
4,CCOCCCN1C(=O)CN(C2CCCCCC2)C(=O)C1c1ccc(C)cc1 (centres unmarked),-4.06%
5,Cc1ccc(NC(=O)CN2C(=O)N/C(=C/c3sccc3C)C2=O)cc1,-3.09%
6,Cc1ccc2c(c1)C(C)CC(C)(C)N2C(=O)CSc1nc(C)cc(C)n1 (centres unmarked),0.475%
7,CCOCCCn1c(SCC(=O)c2ccccc2)nc2c(sc3ccccc32)c1=O,4.17%
8,C=CCn1c(N2CCCCC2)nc2c1c(=O)n(C)c(=O)n2C,-1.07%
9,CC(=O)NCCc1c[nH]c2ccc(C)cc12,3.66%
10,Cc1c2cnn(CC(=O)NCCN3CCOCC3)c(=O)c2c(C)n1Cc1ccc(F)cc1,1.22%
11,Cc1ccnc(NC(=O)c2sc3ccccc3c2Cl)c1,5.23%
12,N#CCNC(=O)[C@H](Cc1cc(Cl)c(O)c(Cl)c1)NC(=O)c1ccccc1Cl,4.63%
13,Cc1ccc(NC(=O)CSc2nc3c(c(=O)n(C)c(=O)n3C)n2C)cc1C,2.38%
14,O=C(Nc1nc2c(cc3c4c(cccc42)CC3)s1)c1ccc(S(=O)(=O)N2CCCCC2)cc1,-2.13%
15,COc1ccc(/C=C/c2[nH]c(=O)[nH]c(=O)c2[N+](=O)[O-])cc1Br,0.162%
16,CCOc1cccc2cc(-c3nc(-c4ccncc4)no3)c(=O)oc12,0.292%
17,CC1CCCN(c2ccc3nonc3c2[N+](=O)[O-])C1 (centres unmarked),2.46%
18,COc1ccc(S(=O)(=O)N2CCN(c3cc(Cl)ccc3C)CC2)cc1OC,1.27%
19,O=C(Cn1c(C(F)(F)F)nc2ccccc21)NCCCn1ccnc1,-7.17%
20,CC(=O)O/N=C(\N)c1ncon1,-9.24%
21,CC1CCCC(N(Cc2ccco2)C(=O)NCc2noc3ccccc23)C1C (centres unmarked),4.03%
22,CC1CC(C)CN(C(=O)C2CCCN(C(=O)c3cc4sccc4n3C)C2)C1 (centres unmarked),-5.72%
23,CCn1ncc(C2=NOC(C(=O)N3CCC(C(N)=O)CC3)C2)c1C (centres unmarked),-6.68%
24,CCCNC(=O)c1nnc(Cc2ccc3c(c2)OCO3)o1,-3.49%
25,Cc1c(C(=O)NCc2ccco2)sc2ncn(CC(=O)N3CCC(C)CC3)c(=O)c12,-0.458%

row,Compound,% Inhibition @ 10 uM
1,O=C(CNS(=O)(=O)c1ccc(Cl)cc1)NCC1CCCO1 (centres unmarked),-4.86%
2,CC1CCCC(N2CC(C)OC(C)C2)C1 (centres unmarked),3.44%
3,CCc1nnc(NC(=O)CSc2ccc3nnc(-c4ccc(C)cc4)n3n2)s1,-3.21%
4,Cc1cc(C)n(C(=O)c2ccc(COc3c(F)c(F)cc(F)c3F)o2)n1,-1.33%
5,O=C(Cn1nc(-c2ccccc2)ccc1=O)NCc1cccs1,2.18%
6,CC1=C(C(=O)Nc2ccccc2)C(c2ccc(Br)cc2)n2ncnc2N1 (centres unmarked),-3.39%
7,O=C(c1cc(=O)c2cc(Cl)ccc2o1)N(Cc1ccccc1)c1ccccn1,3.51%
8,C=CCn1c(SCC(=O)Nc2sc3c(c2C(N)=O)CCC3)nc2sc3c(c2c1=O)CCC3,-2.68%
9,CC(=O)C1=C(C(F)(F)F)C(=O)OC1(C)N1CCOCC1 (centres unmarked),-1.72%
10,COc1cc(OC)c(OC)cc1/C=C/C(=O)c1cc2cc(Cl)ccc2oc1=O,6.84%
11,COc1ccc(C(=O)Nc2ccc(CN3CCOCC3)cc2)cc1Br,-2.85%
12,Cc1ccc2c(c1)-c1c(cnn1CC(=O)NCCOC13CC4CC(CC(C4)C1)C3)CO2,-5.03%
13,CC1=C(C(=O)OCc2ccccc2)C(c2cccc(Cl)c2Cl)C2=C(O)CCCC2=N1 (centres unmarked),-0.233%
14,COC(=O)C1=CN(Cc2ccc(OC)cc2)C=C(C(=O)OC)C1c1cccc(Cl)c1,7.93%
15,Cc1nc(CN2CCN(Cc3csc(C)n3)CC2)cs1,-4.01%
16,CCOC(=O)C1CCN(Cc2ccc(F)c(F)c2)CC1,3.25%
17,O=[N+]([O-])c1cn(-c2cccc(O)c2)cn1,1.42%
18,CC(=O)Nc1cccc(NC(=O)c2ccc([N+](=O)[O-])cc2)c1,-1.38%
19,COc1ccc(N(CC(=O)Nc2ccc(C)cc2C)S(C)(=O)=O)cc1OC,-0.185%
20,Cc1c(C)n(Cc2ccccc2)c2ccc(C(=O)OCCCN(C)C)cc12,6.48%
21,CCC(C)N1CCN(Cc2cc(OC)c(OC)c(OC)c2)CC1 (centres unmarked),-14.4%
22,Cc1c(C)n(Cc2ccc(Cl)cc2)c2ccc(C(=O)NCC3CCCO3)cc12 (centres unmarked),-7.04%
23,O=C1CC(c2ccccc2C(F)(F)F)c2ccc3ccccc3c2N1 (centres unmarked),-2.35%
24,OCCNCc1cc(Cl)ccc1OCc1ccccc1Cl,-2.19%
25,OCCc1ccc(-c2ccc(Cl)cc2)o1,-7.58%

row,Compound,% Inhibition @ 10 uM
1,Cc1ccc2cnn(CCCC(=O)NCCc3ccccc3)c2c1,-1.11%
2,Nc1c(-c2nc3ccccc3[nH]2)nnn1-c1ccc(F)c(Cl)c1,0.776%
3,CCOC(=O)c1c(N)sc2c(N)cccc12,-0.415%
4,NS(=O)(=O)c1ccc(CNC(=O)c2ccc(F)cc2)cc1,-5.7%
5,Cc1nc2cc(-c3ccccc3)nn2c(C)c1CCC(=O)NCc1ccccc1Cl,4.54%
6,CN(c1ccc(C(=O)Nc2ccc(Br)cc2)cc1)S(C)(=O)=O,18.3%
7,COc1cccc(-n2cnc3sc(C)c(C)c3c2=O)c1,-1.96%
8,COc1ccc(CNCC(C)NCc2ccc(OC)c(OC)c2)cc1OC (centres unmarked),1.31%
9,COCc1cc(C)n(CC(=O)Nc2ccc(C(C)=O)cc2)c(=O)c1C#N,1.35%
10,COc1ccc(/C(O)=C/C=N/c2cccc(Cl)c2)cc1OC,0.851%
11,COc1cc(CN2CCN(Cc3cccc(Br)c3)CC2)cc(OC)c1O,0.131%
12,Cc1ccc(Cn2nnc3c(=O)n(Cc4ccc(C(F)(F)F)cc4)cnc32)cc1,-2.16%
13,CCc1nc2ccc(C(=O)N3CC(C)CC(C)C3)cc2nc1CC (centres unmarked),6.71%
14,O=C(N/C(=C\c1ccc(F)cc1)C(=O)N1CCOCC1)c1ccco1,2.38%
15,COc1ccc(CNc2nc(-c3ccc(Cl)cc3)nn2C(=O)c2ccc(OC)cc2)cc1,3.93%
16,Cc1ccc(/C=C2\SC(Nc3ccc(Cl)cc3)=NC2=O)s1,-1.43%
17,O=S(=O)(c1ccc(Cl)cc1)N1CCN(S(=O)(=O)c2ccc(Cl)cc2)CC1,2.05%
18,O=C(NC1CCCCC1)C(Cc1ccccc1)NS(=O)(=O)c1cccs1 (centres unmarked),1.94%
19,O=C(c1ccco1)N1CCN(Cc2nc3ccccc3c(=O)n2-c2ccc(F)cc2)CC1,1.94%
20,Cc1ccc(OCC(=O)Nc2nc3ccccc3s2)c(C)c1,0.331%
21,O=C(CN1CCN(C(=O)c2ccco2)CC1)Nc1c2c(nc3c1CCC3)CCCC2,-4.51%
22,CN1C(=O)/C(=C/c2ccc(O)c(Cl)c2)S/C1=N/c1cccc(C(=O)O)c1,24.7%
23,COc1ccc(-c2cc3c4c(C)n(Cc5ccccc5)c(C)c4c(C)nn3c2)cc1,-2.92%
